Assay results reported in article PMC8531446, “Light-triggered and phosphorylation-dependent 14-3-3 association with NON-PHOTOTROPIC HYPOCOTYL 3 is required for hypocotyl phototropism” (Nature Communications, 2021).
These are yes or no findings as the source states them, for the method shown. For some assays here: Binding seen in cells or lysates may run through a third protein. Some binding calls cover weakened binding; strength is not graded here. For some assays here: Sequences can lack the tags named with a protein.

The chains behind the UniProt entries cited, without tags or fusion partners.
UniProt O48963: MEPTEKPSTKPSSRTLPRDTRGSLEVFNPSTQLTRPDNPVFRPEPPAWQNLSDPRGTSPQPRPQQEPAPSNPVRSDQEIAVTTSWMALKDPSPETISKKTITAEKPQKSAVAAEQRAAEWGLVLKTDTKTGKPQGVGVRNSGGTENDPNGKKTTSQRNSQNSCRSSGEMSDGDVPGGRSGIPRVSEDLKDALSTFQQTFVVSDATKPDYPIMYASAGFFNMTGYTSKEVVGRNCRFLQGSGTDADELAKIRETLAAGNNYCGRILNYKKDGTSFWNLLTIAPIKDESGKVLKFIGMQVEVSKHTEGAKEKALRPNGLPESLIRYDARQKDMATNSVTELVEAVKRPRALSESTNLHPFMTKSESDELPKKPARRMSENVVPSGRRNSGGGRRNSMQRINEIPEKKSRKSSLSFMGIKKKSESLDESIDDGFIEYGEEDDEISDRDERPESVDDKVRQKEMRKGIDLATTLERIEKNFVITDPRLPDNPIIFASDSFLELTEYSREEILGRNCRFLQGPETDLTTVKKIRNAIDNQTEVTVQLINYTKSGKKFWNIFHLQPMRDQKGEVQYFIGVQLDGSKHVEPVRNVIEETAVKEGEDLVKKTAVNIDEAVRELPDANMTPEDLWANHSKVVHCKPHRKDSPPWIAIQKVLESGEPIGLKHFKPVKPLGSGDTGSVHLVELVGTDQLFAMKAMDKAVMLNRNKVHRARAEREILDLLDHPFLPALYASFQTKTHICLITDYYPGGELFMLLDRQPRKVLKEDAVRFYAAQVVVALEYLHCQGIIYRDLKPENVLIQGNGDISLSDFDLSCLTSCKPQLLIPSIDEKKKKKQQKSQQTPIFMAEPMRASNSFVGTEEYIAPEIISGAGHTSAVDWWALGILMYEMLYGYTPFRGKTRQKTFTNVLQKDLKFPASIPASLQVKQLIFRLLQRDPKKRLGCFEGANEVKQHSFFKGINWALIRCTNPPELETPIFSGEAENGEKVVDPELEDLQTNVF

Assays:
[1] = target: T1, 14-3-3 omega:mEGFP (Arabidopsis) (UniProt Q01525); assay: condition: only dark-adapted plants kept in darkness; co-IP; as a3, but dark-adapted N. benthamiana plants kept in darkness (D); GFP beads; anti-GFP and anti-RFP blots
T1 sequence: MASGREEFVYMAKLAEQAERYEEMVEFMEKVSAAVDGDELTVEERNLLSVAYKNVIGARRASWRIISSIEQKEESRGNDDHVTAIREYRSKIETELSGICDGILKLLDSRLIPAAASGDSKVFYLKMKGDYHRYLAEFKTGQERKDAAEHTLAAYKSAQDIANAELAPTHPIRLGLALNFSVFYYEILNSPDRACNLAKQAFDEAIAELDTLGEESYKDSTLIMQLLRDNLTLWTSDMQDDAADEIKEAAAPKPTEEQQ

[2] = target: T1, 14-3-3 omega:mEGFP (Arabidopsis); assay: co-IP; N. benthamiana leaves co-expressing both proteins (35S promoter), kept under constant light for 42 h or dark-adapted and treated with blue light (10 μmol m^-2 s^-1, 40 min); crude extract precipitated with GFP beads (GFP-Trap); anti-GFP and anti-RFP blots
phot1:GFP (Arabidopsis) = phot1:GFP (Arabidopsis) (UniProt O48963); assay: co-IP; solubilized (0.5% Triton X-100) microsomal proteins from dark-adapted N. benthamiana co-expressing phot1:GFP and RFP:NPH3 variants; GFP-Trap beads, 4 °C, 1 h; washed with 50 mM HEPES pH 7.8, 150 mM NaCl, 0.2% Triton X-100
[3] = target: T2, GFP:NPH3-S744A from N. benthamiana (Arabidopsis thaliana) (UniProt Q9FMF5); assay: far-Western, overlay or dot blot; anti-GFP immunoprecipitates from blue-light-treated N. benthamiana leaves (10 μmol m^-2 s^-1, 40 min) or Arabidopsis nph3-7 seedlings (1 μmol m^-2 s^-1) separated by SDS-PAGE, on nitrocellulose; overlaid with RGS(His)6-14-3-3 omega at 20 μg ml^-1 in 50 mM MOPS pH 6.5, 20% glycerol, 5 mM MgCl2, 2 mM DTT, overnight at 4 °C; anti-RGS(His)6 detection; both purified
T2 sequence: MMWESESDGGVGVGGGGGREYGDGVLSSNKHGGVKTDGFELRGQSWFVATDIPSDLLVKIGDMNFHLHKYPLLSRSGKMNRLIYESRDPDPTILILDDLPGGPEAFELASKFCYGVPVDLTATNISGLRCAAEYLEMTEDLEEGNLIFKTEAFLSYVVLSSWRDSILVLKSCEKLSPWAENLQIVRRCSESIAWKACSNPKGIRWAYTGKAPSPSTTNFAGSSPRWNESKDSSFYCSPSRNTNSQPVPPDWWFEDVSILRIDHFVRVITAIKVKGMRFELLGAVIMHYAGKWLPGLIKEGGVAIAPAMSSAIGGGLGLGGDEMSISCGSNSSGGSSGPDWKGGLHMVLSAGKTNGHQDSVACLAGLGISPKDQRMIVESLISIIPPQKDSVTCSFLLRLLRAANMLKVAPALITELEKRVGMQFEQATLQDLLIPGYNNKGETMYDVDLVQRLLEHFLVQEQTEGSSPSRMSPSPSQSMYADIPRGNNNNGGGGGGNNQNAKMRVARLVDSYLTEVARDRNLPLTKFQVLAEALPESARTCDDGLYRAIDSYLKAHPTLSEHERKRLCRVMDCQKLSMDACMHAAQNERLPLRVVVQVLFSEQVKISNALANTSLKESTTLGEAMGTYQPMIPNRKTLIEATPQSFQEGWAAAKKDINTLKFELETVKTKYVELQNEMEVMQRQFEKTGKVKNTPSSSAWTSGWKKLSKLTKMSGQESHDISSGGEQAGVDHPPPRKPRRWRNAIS

B1: mCherry:NPH3 (protein, UniProt Q9FMF5 1-746)
chain: MMWESESDGGVGVGGGGGREYGDGVLSSNKHGGVKTDGFELRGQSWFVATDIPSDLLVKIGDMNFHLHKYPLLSRSGKMNRLIYESRDPDPTILILDDLPGGPEAFELASKFCYGVPVDLTATNISGLRCAAEYLEMTEDLEEGNLIFKTEAFLSYVVLSSWRDSILVLKSCEKLSPWAENLQIVRRCSESIAWKACSNPKGIRWAYTGKAPSPSTTNFAGSSPRWNESKDSSFYCSPSRNTNSQPVPPDWWFEDVSILRIDHFVRVITAIKVKGMRFELLGAVIMHYAGKWLPGLIKEGGVAIAPAMSSAIGGGLGLGGDEMSISCGSNSSGGSSGPDWKGGLHMVLSAGKTNGHQDSVACLAGLGISPKDQRMIVESLISIIPPQKDSVTCSFLLRLLRAANMLKVAPALITELEKRVGMQFEQATLQDLLIPGYNNKGETMYDVDLVQRLLEHFLVQEQTEGSSPSRMSPSPSQSMYADIPRGNNNNGGGGGGNNQNAKMRVARLVDSYLTEVARDRNLPLTKFQVLAEALPESARTCDDGLYRAIDSYLKAHPTLSEHERKRLCRVMDCQKLSMDACMHAAQNERLPLRVVVQVLFSEQVKISNALANTSLKESTTLGEAMGTYQPMIPNRKTLIEATPQSFQEGWAAAKKDINTLKFELETVKTKYVELQNEMEVMQRQFEKTGKVKNTPSSSAWTSGWKKLSKLTKMSGQESHDISSGGEQAGVDHPPPRKPRRWRNSIS
[1]
  binding: no binding
[2]
  binding: binds

B2: RFP:NPH3-S744A (protein, UniProt Q9FMF5 1-746)
chain: MMWESESDGGVGVGGGGGREYGDGVLSSNKHGGVKTDGFELRGQSWFVATDIPSDLLVKIGDMNFHLHKYPLLSRSGKMNRLIYESRDPDPTILILDDLPGGPEAFELASKFCYGVPVDLTATNISGLRCAAEYLEMTEDLEEGNLIFKTEAFLSYVVLSSWRDSILVLKSCEKLSPWAENLQIVRRCSESIAWKACSNPKGIRWAYTGKAPSPSTTNFAGSSPRWNESKDSSFYCSPSRNTNSQPVPPDWWFEDVSILRIDHFVRVITAIKVKGMRFELLGAVIMHYAGKWLPGLIKEGGVAIAPAMSSAIGGGLGLGGDEMSISCGSNSSGGSSGPDWKGGLHMVLSAGKTNGHQDSVACLAGLGISPKDQRMIVESLISIIPPQKDSVTCSFLLRLLRAANMLKVAPALITELEKRVGMQFEQATLQDLLIPGYNNKGETMYDVDLVQRLLEHFLVQEQTEGSSPSRMSPSPSQSMYADIPRGNNNNGGGGGGNNQNAKMRVARLVDSYLTEVARDRNLPLTKFQVLAEALPESARTCDDGLYRAIDSYLKAHPTLSEHERKRLCRVMDCQKLSMDACMHAAQNERLPLRVVVQVLFSEQVKISNALANTSLKESTTLGEAMGTYQPMIPNRKTLIEATPQSFQEGWAAAKKDINTLKFELETVKTKYVELQNEMEVMQRQFEKTGKVKNTPSSSAWTSGWKKLSKLTKMSGQESHDISSGGEQAGVDHPPPRKPRRWRNAIS
phot1:GFP (Arabidopsis)
  binding: binds

B3: RFP:NPH3ΔC28 (domain or fragment, UniProt Q9FMF5 1-718)
chain: MMWESESDGGVGVGGGGGREYGDGVLSSNKHGGVKTDGFELRGQSWFVATDIPSDLLVKIGDMNFHLHKYPLLSRSGKMNRLIYESRDPDPTILILDDLPGGPEAFELASKFCYGVPVDLTATNISGLRCAAEYLEMTEDLEEGNLIFKTEAFLSYVVLSSWRDSILVLKSCEKLSPWAENLQIVRRCSESIAWKACSNPKGIRWAYTGKAPSPSTTNFAGSSPRWNESKDSSFYCSPSRNTNSQPVPPDWWFEDVSILRIDHFVRVITAIKVKGMRFELLGAVIMHYAGKWLPGLIKEGGVAIAPAMSSAIGGGLGLGGDEMSISCGSNSSGGSSGPDWKGGLHMVLSAGKTNGHQDSVACLAGLGISPKDQRMIVESLISIIPPQKDSVTCSFLLRLLRAANMLKVAPALITELEKRVGMQFEQATLQDLLIPGYNNKGETMYDVDLVQRLLEHFLVQEQTEGSSPSRMSPSPSQSMYADIPRGNNNNGGGGGGNNQNAKMRVARLVDSYLTEVARDRNLPLTKFQVLAEALPESARTCDDGLYRAIDSYLKAHPTLSEHERKRLCRVMDCQKLSMDACMHAAQNERLPLRVVVQVLFSEQVKISNALANTSLKESTTLGEAMGTYQPMIPNRKTLIEATPQSFQEGWAAAKKDINTLKFELETVKTKYVELQNEMEVMQRQFEKTGKVKNTPSSSAWTSGWKKLSKLTKMSGQES
phot1:GFP (Arabidopsis)
  binding: binds

B4: RGS(His)6-tagged Arabidopsis 14-3-3 isoform omega (natural protein, UniProt Q01525 1-259, looked up)
chain: MASGREEFVYMAKLAEQAERYEEMVEFMEKVSAAVDGDELTVEERNLLSVAYKNVIGARRASWRIISSIEQKEESRGNDDHVTAIREYRSKIETELSGICDGILKLLDSRLIPAAASGDSKVFYLKMKGDYHRYLAEFKTGQERKDAAEHTLAAYKSAQDIANAELAPTHPIRLGLALNFSVFYYEILNSPDRACNLAKQAFDEAIAELDTLGEESYKDSTLIMQLLRDNLTLWTSDMQDDAADEIKEAAAPKPTEEQQ
notes: 14-3-3 isoform omega, Arabidopsis; cDNA in the expression vector pQE-30; also called purified recombinant 14-3-3 proteins; RGS(His)6-tagged 14-3-3; source: E. coli M15, purified (Ni2+-NTA agarose, native conditions)
[3]
  binding: no binding (tested: 20 μg ml^-1)
